Experimental data reported in PubChem BioAssay AID720542 (National Center for Advancing Translational Sciences (NCATS), 2013).
About 740 (0.21%) of roughly 360,000 compounds were called active. This list was built around the results that the source calls inconclusive (neither active nor inactive); the mix of calls is not that of the screen. Calls follow the shape of the dose curve; as a rule, active = well fitted inhibition curve with a large enough effect; inconclusive = small, poorly fitted or top-dose-only effect; inactive = no such curve, though single readings can be large or run the other way. Potencies of inconclusive entries are left out as doubtful fits.

System: Plasmodium falciparum AMA1 (3D7) - RON2 peptide interaction
Test: qHTS for Inhibitors of AMA1-RON; Towards Development of Antimalarial Drug Lead: Primary Screen; also: nearly all actives have a fitted effect of over 45% in size;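 as to activity change, negative = inhibition: 0% = vehicle wells and -100% = peptide control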
Conditions: AlphaScreen AMA1-biotinylated RON2 peptide binding; activity change, negative = inhibition: at 58.2 µM (top of the series) unless noted
How it was run: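 AMA1 (3D7) with his tag at 25 nM final met compounds first, then biotinylated RON2 peptide at 25 nM; detection used donor plus acceptor beads, 10 µg/mL apiece, read by AlphaScreen after 30 min at room temperature.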
Potency is read from the fitted curve at half-maximal effect; tags tell the direction and shape of the fitted curve.

SMILES	Potency	activity change, negative = inhibition
COc1cc(C(C(=O)NCc2ccccc2)N(Cc2ccco2)C(=O)c2cnccn2)cc(OC)c1OC (stereo not given)	inactive	
COc1ccc(/C=N/NC(=O)c2ccccc2F)cc1CN1CCN(c2ccc(F)cc2)CC1	inconclusive [inhibitor, partial curve]	
C[C@]12CC[C@@H]3c4ccc(O)c(O)c4CC[C@H]3[C@@H]1CC[C@@H]2O	inconclusive [inhibitor, partial curve]	
CCc1ccc2c(c1)/C(=C/C(=O)c1cccs1)C(=O)N2	inconclusive [inhibitor, partial curve]	
Cc1ccc(C2=Nc3c(ccc4ccccc34)C(c3ccncc3)=NN2)cc1	inconclusive [inhibitor, single point]	
CCC(=O)Nc1cccc(-c2nc3ccccc3c(=O)o2)c1	inactive	
O=C(O)c1ccc2c(c1)C1C=CCC1C(c1cc3c(cc1Br)OCO3)N2 (stereo not given)	inconclusive [inhibitor, single point]	
N/C(Cc1ccc([N+](=O)[O-])cc1)=N\OC(=O)c1ccccc1F	inactive	
O=C(c1ccco1)N1CCN(Cc2ccc(F)cc2)CC1	inconclusive [inhibitor, partial curve]	
CCOc1ccc(N/C(N)=N/c2nc(C)c(C)c(=O)[nH]2)cc1	inconclusive [inhibitor, single point]	
CCCCN(C=O)c1c(CC)nc2c(OCc3ccc(C(F)(F)F)cc3)cccn12	inconclusive [inhibitor, single point]	
COc1cccc(-c2oc3c(c2-c2ccc(OC)nc2)C(O)CCC3)c1 (stereo not given)	inactive	
NC(=O)C1CCN(CC(O)CSc2ccccc2)CC1 (stereo not given)	inactive	
CN(c1ccc(OCC(=O)Nc2nc3ccccc3s2)cc1)S(=O)(=O)c1ccccc1	inactive	
O=C(Nc1cc(Cl)cc(Cl)c1)C(c1ccccc1)N1CCCCC1 (stereo not given)	inconclusive [inhibitor, full curve, poor fit]	
COc1ccc(N2CCN(c3nc(NC(C)(C)C)nc(N4CCCCC4)n3)CC2)cc1	inconclusive [inhibitor, partial curve]	
Cc1cc(C(=O)CSc2nnc(N)s2)c(C)n1Cc1cccs1	inactive	
Cc1cc(C)cc(Nc2ncnc3nc[nH]c23)c1	inactive	
CCCC1NC(=O)c2cc3ccccc3cc2-n2c1nc1ccc(C)cc1c2=O (stereo not given)	inactive	
CC1(C)CC(=O)C2=C(C1)N1C(=C(C#N)C2c2ccccc2Cl)N=C(N)c2ccccc21 (stereo not given)	inactive	
CCOC(=O)c1ccccc1NC(=O)COc1coc(CN2CCc3ccccc32)cc1=O	inconclusive [inhibitor, single point]	
O=C(COC(=O)c1cc(-c2cccs2)nn1-c1ccccc1)Nc1cccc([N+](=O)[O-])c1	inconclusive [inhibitor, full curve, poor fit]	
CCC(CC)NCc1c[nH]c2ccccc12	inconclusive [inhibitor, partial curve]	
COc1ccc2nc(N3CCN(C(=O)C4COc5ccccc5O4)CC3)sc2c1 (stereo not given)	inconclusive [inhibitor, partial curve, poor fit]	

SMILES	Potency	activity change, negative = inhibition
COc1ccc(OC)c(NC(=O)c2ccc(NS(=O)(=O)c3c(C)noc3C)cc2)c1		inconclusive: -19.2% [inhibitor]
COC(=O)c1c(Cl)c2n3ccccc3c(C)c(-c3ccccc3)c-2c1C(=O)OC	inconclusive [inhibitor, partial curve]	
CCO[C@H]1OC(C(=O)Nc2ccccc2)=C[C@@H](c2cn(C(C)=O)c3ccccc23)[C@@H]1CCCO	inactive	
CC(=O)Nc1ccc(N2C(=O)c3ccc(S(=O)(=O)c4ccc(C(=O)O)cc4)cc3C2=O)cc1	inactive	
O=C1CCC(=O)N1c1ccc(-c2nc3sc4c(c3c(=O)o2)CCC4)cc1	inconclusive [inhibitor, full curve, poor fit]	
O=C(NN=C1CCCCCCCCCCC1)c1ccncc1	inactive	
C[n+]1ccc(/C=C/c2c[nH]c3ccc(F)cc23)cc1	inactive	
O=C1NC(=O)N(Cc2ccco2)C(=O)/C1=C/C=C/c1ccco1	inconclusive [inhibitor, partial curve]	
COc1cc(CNc2ccc(N3CCCC3)cc2)ccc1OCc1ccccc1F	inconclusive [inhibitor, single point]	
CN(C)c1ccc(-c2ccnc3c2CC(C)(C(=O)Nc2cccc(OC(F)(F)F)c2)O3)cc1 (stereo not given)	inconclusive [inhibitor, partial curve]	
CC1=[N+]([O-])C(C)(C)N(O)C1(C)C	inconclusive [inhibitor, partial curve]	
Cn1cc(CNCc2cnc3ccccn23)c(-c2ccc(Oc3ccccc3)cc2)n1	active: 28.2 µM	
Cc1cc2ccccc2n1CCNC(=O)c1ccc(Br)o1	inconclusive [inhibitor, single point]	
CC1CN(C2CCN(S(=O)(=O)c3ccccc3)CC2)CC(C)O1 (stereo not given)	inconclusive [inhibitor, partial curve]	
Fc1ccc2c(c1)nnn2C1CCN(Cc2nnnn2CCc2ccccc2)CC1	inactive	
Cc1nnsc1NC(=O)OCc1ccc(C(C)(C)C)cc1	inactive	
Cc1ccccc1Cn1c(=N)n(CC(O)c2ccco2)c2ccccc21 (stereo not given)	inconclusive [inhibitor, partial curve, poor fit]	
O=C(Nc1ccc(O)cc1C(=O)O)c1cccc(Br)c1	inconclusive [inhibitor, partial curve]	
COc1ccc(O)c(C(c2c(C)[nH][nH]c2=O)c2c(C)[nH][nH]c2=O)c1	inactive	
CCn1c(=O)c([N+](=O)[O-])c(N2CCN(Cc3ccc4c(c3)OCO4)CC2)c2ccccc21	inconclusive [inhibitor, partial curve]	
O=[N+]([O-])c1ccc(N2CCN(CC3CCCCC3)CC2)cc1	inconclusive [inhibitor, single point]	
Cc1ccc(S(=O)(=O)OCCC2=CC(=O)CCN2Cc2ccccc2)cc1	inactive	
Cc1ccc(-n2c(=O)[nH]c3c(C(N)=O)nc(CC(C)C)nc32)cc1	inactive	
Cc1ccccc1OCCC(=O)OCC(=O)Nc1c(C)nn(-c2ccccc2)c1C	inconclusive [inhibitor, full curve]	

SMILES	Potency	activity change, negative = inhibition
Cc1nn(-c2ccccc2)c2c1C(c1cccs1)C(C#N)=C(N)O2 (stereo not given)	inconclusive [inhibitor, partial curve]	
Cc1cc(C)c(NC(N)=S)c(C)c1	inconclusive [inhibitor, partial curve]	
CCC(c1nnnn1-c1ccc2c(c1)OCCO2)N1CCN(c2ccc(OC)cc2)CC1 (stereo not given)	inconclusive [inhibitor, single point]	
COc1ccccc1N1CCN(C2CCCN(C(=O)CCn3cncn3)C2)CC1 (stereo not given)	inactive	
COc1ccccc1OCC(O)Cn1c(=N)n(CCN2CCCCC2)c2ccccc21 (stereo not given)	inactive	
Cc1ccc(C2(c3ccc(C)cc3)CC2C(=O)Nc2ccc([N+](=O)[O-])cc2O)cc1 (stereo not given)	inconclusive [inhibitor, full curve, poor fit]	
CC(=O)NN1C(=O)/C(=C2/Sc3ccccc3N2C)SC1=S	inactive	
COc1ccc(S(=O)(=O)N2CCN(CC(=O)Nc3cc(C(F)(F)F)ccc3Cl)CC2)cc1	inactive	
NNC(=O)c1ccc(Cn2cc(Br)c(N)n2)cc1	inconclusive [inhibitor, partial curve]	
COc1cc(CN2CCN(Cc3ccc(SC)cc3)CC2)cc(OC)c1O	inconclusive [inhibitor, single point]	
CCN(CCCl)c1cc(CN(C)C)cc(NC(=O)c2ccc(C(=O)Nc3cc(CN(C)C)cc(N(CC)CCCl)c3)cc2)c1	active: 25.1 µM	
N#CC1=C2N=C(N)c3ccccc3N2C2=C(C(=O)CCC2)C1c1cccc(Cl)c1 (stereo not given)	inconclusive [inhibitor, single point]	
CC1(C)C([N+](=O)[O-])C(c2ccc(F)cc2)NC(c2ccc(F)cc2)C1[N+](=O)[O-] (stereo not given)	inconclusive [inhibitor, partial curve]	
COc1ccc(Cl)cc1/C=C/c1ccc2cccc(O)c2n1	inactive	
CC1CCN(c2cc(N3CCN(C(=O)c4ccc(F)c(F)c4)CC3)c([N+](=O)[O-])cc2F)CC1	inconclusive [inhibitor, partial curve]	
Cc1ccc(S(=O)(=O)N2CCN(C(=O)c3ccc(OCc4c(C)noc4C)cc3)CC2)cc1	inactive	
C=CCn1c(C)cc(C(=O)COC(=O)COc2ccccc2C#N)c1C	inconclusive [inhibitor, partial curve]	
Cc1cc(NC(=O)CS(=O)(=O)Cc2ccccc2)no1	inconclusive [inhibitor, full curve, poor fit]	
O=C1C=C(c2ccc3ccccc3c2)C[C@@H](c2ccc(Cl)cc2)C1	inactive	
CCN(CC)c1ccc(/C=N/NC(=O)Nc2ccccc2)cc1	inconclusive [inhibitor, single point]	
O=C(/C=C\Nc1ccc2c(c1)OCO2)c1cccs1	inconclusive [inhibitor, single point]	
COc1cccc(CN(C)CC(=O)NC(=O)NCc2ccccc2)c1	inconclusive [inhibitor, partial curve]	
